# Test results taken from the supplement of paper PMC4967469.
# By IC50 is meant the dose at which the fit gives 50% viability; where the fit passes the top or lowest dose, that dose stands as a limit. AUC sums up the same curve from the lowest dose to the 256-fold higher top dose; the more sensitive the line, the further below 1. For some assays here: Where the top dose is marked as inferred, it was derived from the fitted curves, not read from the paper. For some assays here: Drugs with an entry number were screened twice under separate entries, and the two screens often disagree.
# How the values were obtained:
# Test in all cases: Viability of human cancer cell lines after 72 h of drug (GDSC screen)
# PLX4720 = compound: CCCS(=O)(=O)Nc1ccc(F)c(C(=O)c2c[nH]c3ncc(Cl)cc23)c1F [PLX4720]; details: top dose 10 µM
# Procedure: (§1)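 Human cancer cell lines in 384-well plates, medium with 10% serum, drug for 72 h over a 256-fold dose range (nine 2-fold or five 4-fold steps up to the top dose). Adherent lines were fixed and stained with the nucleic acid dye Syto60, suspension lines read with resazurin; signal relative to control wells, capped at 0 and 100%. One two-parameter sigmoid per drug and line, fitted in a mixed model over all curves with the slope shared within a line.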
# Pyrimethamine = compound: CCc1nc(N)nc(N)c1-c1ccc(Cl)cc1 [Pyrimethamine]; details: top dose 20 µM; top dose inferred
# Procedure: as §1
# Epothilone B = compound: C/C(=C\c1csc(C)n1)[C@@H]1C[C@@H]2O[C@]2(C)CCC[C@H](C)[C@H](O)[C@@H](C)C(=O)C(C)(C)[C@@H](O)CC(=O)O1 [Epothilone B]; details: top dose 0.032 µM; top dose inferred
# Procedure: as §1
# TPCA-1 = compound: NC(=O)Nc1sc(-c2ccc(F)cc2)cc1C(N)=O [TPCA-1]; details: top dose 20 µM
# Procedure: as §1
# Y-39983 = compound: C[C@@H](N)c1ccc(C(=O)Nc2ccnc3[nH]ccc23)cc1 [Y-39983]; details: top dose 20 µM; top dose inferred
# Procedure: as §1
# AZD-0530 = compound: CN1CCN(CCOc2cc(OC3CCOCC3)c3c(Nc4c(Cl)ccc5c4OCO5)ncnc3c2)CC1 [AZD-0530]; details: top dose 2 µM
# Procedure: as §1
# PHA-793887 = compound: CC(C)CC(=O)Nc1n[nH]c2c1CN(C(=O)C1CCN(C)CC1)C2(C)C [PHA-793887]; details: top dose 10.24 µM
# Procedure: as §1
# [1] = screen: GDSC drug entry 1371, top dose inferred
Cell Line,AUC (PLX4720; screen: GDSC drug entry 1036),IC50 (PLX4720; screen: GDSC drug entry 1036),AUC (PLX4720; [1]),IC50 (PLX4720; [1]),AUC (Pyrimethamine),IC50 (Pyrimethamine),AUC (Epothilone B),IC50 (Epothilone B),AUC (TPCA-1),IC50 (TPCA-1),AUC (Y-39983),IC50 (Y-39983),AUC (AZD-0530),IC50 (AZD-0530),AUC (PHA-793887),IC50 (PHA-793887)
"EW-18 (Ewing sarcoma, suspension)",0.882,> 10 µM,0.949,> 10 µM,0.95,> 20 µM,0.556,0.00287 µM,0.53,1.52 µM,0.891,> 20 µM,0.976,> 2 µM,0.598,1.21 µM
"EW-24 (Ewing sarcoma, semi-adherent)",0.983,> 10 µM,0.989,> 10 µM,0.957,> 20 µM,0.935,> 0.032 µM,0.892,18.7 µM,0.982,> 20 µM,0.766,0.651 µM,0.99,> 10.2 µM
"Farage (B-cell lymphoma, suspension)",0.924,> 10 µM,0.99,> 10 µM,0.919,> 20 µM,0.606,0.00368 µM,0.453,0.954 µM,0.476,1.09 µM,0.819,0.883 µM,0.479,0.566 µM
"GB-1 (glioma, adherent)",0.93,> 10 µM,0.849,9.66 µM,0.977,> 20 µM,0.22,0.000255 µM,0.674,4.2 µM,0.856,> 20 µM,0.85,1.95 µM,0.973,> 10.2 µM
"GCIY (stomach, adherent)",0.983,> 10 µM,,,0.835,15.6 µM,0.639,0.00512 µM,0.922,> 20 µM,0.981,> 20 µM,0.866,> 2 µM,0.961,> 10.2 µM
"GDM-1 (acute myeloid leukaemia, suspension)",0.976,> 10 µM,0.977,> 10 µM,0.931,> 20 µM,0.624,,0.245,0.239 µM,0.437,0.848 µM,0.676,0.378 µM,0.719,2.58 µM
"GI-1 (glioma, adherent)",0.976,> 10 µM,0.866,8.35 µM,0.97,> 20 µM,0.519,0.00225 µM,0.842,13.2 µM,0.777,7.72 µM,0.854,1.48 µM,0.88,9.81 µM
"GI-ME-N (neuroblastoma, adherent)",0.961,> 10 µM,0.946,> 10 µM,0.519,1.44 µM,0.63,0.0052 µM,0.714,6.35 µM,0.494,1.2 µM,0.958,> 2 µM,0.617,1.51 µM
"GR-ST (lymphoblastic leukaemia, suspension)",0.864,> 10 µM,0.909,> 10 µM,0.438,0.816 µM,0.616,0.00446 µM,0.765,8.86 µM,0.967,> 20 µM,0.975,> 2 µM,0.457,0.478 µM
"GRANTA-519 (B-cell lymphoma, suspension)",0.989,> 10 µM,0.977,> 10 µM,0.979,> 20 µM,0.808,0.0146 µM,0.909,> 20 µM,0.979,> 20 µM,0.988,> 2 µM,0.816,4.97 µM
"H9 (lymphoid neoplasm, suspension)",0.992,> 10 µM,0.969,> 10 µM,0.696,3.95 µM,0.641,0.00453 µM,0.431,0.839 µM,0.928,> 20 µM,0.983,> 2 µM,0.884,7.67 µM
"H-EMC-SS (chondrosarcoma, adherent)",0.981,> 10 µM,0.979,> 10 µM,0.981,> 20 µM,0.947,> 0.032 µM,0.58,2.22 µM,0.927,> 20 µM,0.977,> 2 µM,0.884,> 10.2 µM
"HAL-01 (lymphoblastic leukaemia, suspension)",0.943,> 10 µM,0.972,> 10 µM,0.728,5.08 µM,0.66,0.00524 µM,0.432,0.834 µM,0.974,> 20 µM,0.968,> 2 µM,0.873,7.94 µM
"HC-1 (hairy cell leukaemia, suspension)",0.977,> 10 µM,0.949,> 10 µM,0.74,5.86 µM,0.601,0.00375 µM,0.468,1.03 µM,0.933,> 20 µM,0.976,> 2 µM,0.39,0.324 µM
"HCC1187 (breast, suspension)",0.987,> 10 µM,0.988,> 10 µM,0.907,> 20 µM,0.788,0.0133 µM,0.815,10.4 µM,0.88,18.9 µM,0.984,> 2 µM,0.58,1.05 µM
"HCC1500 (breast, adherent)",0.98,> 10 µM,0.985,> 10 µM,0.957,> 20 µM,0.964,> 0.032 µM,0.944,> 20 µM,0.981,> 20 µM,0.985,> 2 µM,0.911,> 10.2 µM
"HCC2157 (breast, suspension)",0.984,> 10 µM,0.983,> 10 µM,0.959,> 20 µM,0.464,0.00159 µM,0.987,> 20 µM,0.987,> 20 µM,0.983,> 2 µM,0.694,2.31 µM
"HCC2218 (breast, suspension)",0.96,> 10 µM,0.97,> 10 µM,0.967,> 20 µM,0.76,0.014 µM,0.963,> 20 µM,0.968,> 20 µM,0.949,> 2 µM,0.652,1.89 µM
"HD-MY-Z (Hodgkin lymphoma, adherent)",0.968,> 10 µM,0.932,> 10 µM,0.833,13 µM,0.819,0.0183 µM,0.75,6.59 µM,0.906,> 20 µM,0.978,> 2 µM,0.514,0.699 µM
"HDLM-2 (Hodgkin lymphoma, suspension)",0.942,> 10 µM,0.958,> 10 µM,0.971,> 20 µM,0.823,0.0186 µM,0.986,> 20 µM,0.989,> 20 µM,0.983,> 2 µM,0.966,> 10.2 µM
"HL-60 (acute myeloid leukaemia, suspension)",0.989,> 10 µM,0.978,> 10 µM,0.983,> 20 µM,0.512,0.00214 µM,0.727,5.1 µM,0.908,> 20 µM,0.99,> 2 µM,0.672,1.82 µM
"HOP-62 (lung adenocarcinoma, adherent)",0.981,> 10 µM,0.972,> 10 µM,0.728,5.54 µM,0.384,0.000961 µM,0.932,> 20 µM,0.924,> 20 µM,0.871,1.87 µM,0.615,1.32 µM
"HSC-39 (stomach, suspension)",0.776,3.44 µM,0.939,> 10 µM,0.926,> 20 µM,0.935,> 0.032 µM,0.986,> 20 µM,0.985,> 20 µM,0.991,> 2 µM,0.862,6.87 µM
"HT (B-cell lymphoma, suspension)",0.956,> 10 µM,0.883,9.16 µM,0.926,> 20 µM,0.814,0.0156 µM,0.912,> 20 µM,0.827,10.9 µM,0.99,> 2 µM,0.847,6.64 µM
"HUTU-80 (digestive system, adherent)",0.991,> 10 µM,0.986,> 10 µM,0.845,10.9 µM,0.231,0.000397 µM,0.812,8.5 µM,0.928,> 20 µM,0.936,> 2 µM,0.605,1.18 µM
"Hs-445 (Hodgkin lymphoma, suspension)",,,0.975,> 10 µM,0.72,4.96 µM,0.614,0.00401 µM,0.594,2.22 µM,0.912,> 20 µM,0.984,> 2 µM,0.649,1.6 µM
"IMR-5 (neuroblastoma, adherent)",0.989,> 10 µM,0.942,> 10 µM,0.975,> 20 µM,0.536,0.00247 µM,0.529,1.48 µM,0.751,5.69 µM,0.992,> 2 µM,0.618,1.28 µM
"IST-MEL1 (melanoma, adherent)",0.863,> 10 µM,0.859,> 10 µM,0.653,3.61 µM,0.576,0.00337 µM,0.87,> 20 µM,0.89,> 20 µM,0.951,> 2 µM,0.897,> 10.2 µM
